Source: PubChem BioAssay AID504333 (National Center for Advancing Translational Sciences (NCATS), 2011)
In all, about 360,000 compounds went through this assay and about 16,000 (4.4%) were called active. The inconclusive results got no clear call from the source; some entries with a clear call stand among them for comparison. Calls follow the shape of the dose curve; as a rule, active = well fitted inhibition curve with a large enough effect; inconclusive = small, poorly fitted or top-dose-only effect; inactive = no such curve, though single readings can be large or run the other way. A potency beside an inconclusive call is a rough fit, not a confirmed value.

What follows are compounds tested against Bromodomain adjacent to zinc finger domain protein 2B (Homo sapiens) (UniProt Q9UIF8) (assay: qHTS Assay for Inhibitors of BAZ2B). Conditions: AlphaScreen BAZ2B-H3K14Ac peptide displacement; series mostly up to 114 µM.
UniProt Q9UIF8, sequence (Q9UIF8 whole entry, looked up, the tested form may be a part): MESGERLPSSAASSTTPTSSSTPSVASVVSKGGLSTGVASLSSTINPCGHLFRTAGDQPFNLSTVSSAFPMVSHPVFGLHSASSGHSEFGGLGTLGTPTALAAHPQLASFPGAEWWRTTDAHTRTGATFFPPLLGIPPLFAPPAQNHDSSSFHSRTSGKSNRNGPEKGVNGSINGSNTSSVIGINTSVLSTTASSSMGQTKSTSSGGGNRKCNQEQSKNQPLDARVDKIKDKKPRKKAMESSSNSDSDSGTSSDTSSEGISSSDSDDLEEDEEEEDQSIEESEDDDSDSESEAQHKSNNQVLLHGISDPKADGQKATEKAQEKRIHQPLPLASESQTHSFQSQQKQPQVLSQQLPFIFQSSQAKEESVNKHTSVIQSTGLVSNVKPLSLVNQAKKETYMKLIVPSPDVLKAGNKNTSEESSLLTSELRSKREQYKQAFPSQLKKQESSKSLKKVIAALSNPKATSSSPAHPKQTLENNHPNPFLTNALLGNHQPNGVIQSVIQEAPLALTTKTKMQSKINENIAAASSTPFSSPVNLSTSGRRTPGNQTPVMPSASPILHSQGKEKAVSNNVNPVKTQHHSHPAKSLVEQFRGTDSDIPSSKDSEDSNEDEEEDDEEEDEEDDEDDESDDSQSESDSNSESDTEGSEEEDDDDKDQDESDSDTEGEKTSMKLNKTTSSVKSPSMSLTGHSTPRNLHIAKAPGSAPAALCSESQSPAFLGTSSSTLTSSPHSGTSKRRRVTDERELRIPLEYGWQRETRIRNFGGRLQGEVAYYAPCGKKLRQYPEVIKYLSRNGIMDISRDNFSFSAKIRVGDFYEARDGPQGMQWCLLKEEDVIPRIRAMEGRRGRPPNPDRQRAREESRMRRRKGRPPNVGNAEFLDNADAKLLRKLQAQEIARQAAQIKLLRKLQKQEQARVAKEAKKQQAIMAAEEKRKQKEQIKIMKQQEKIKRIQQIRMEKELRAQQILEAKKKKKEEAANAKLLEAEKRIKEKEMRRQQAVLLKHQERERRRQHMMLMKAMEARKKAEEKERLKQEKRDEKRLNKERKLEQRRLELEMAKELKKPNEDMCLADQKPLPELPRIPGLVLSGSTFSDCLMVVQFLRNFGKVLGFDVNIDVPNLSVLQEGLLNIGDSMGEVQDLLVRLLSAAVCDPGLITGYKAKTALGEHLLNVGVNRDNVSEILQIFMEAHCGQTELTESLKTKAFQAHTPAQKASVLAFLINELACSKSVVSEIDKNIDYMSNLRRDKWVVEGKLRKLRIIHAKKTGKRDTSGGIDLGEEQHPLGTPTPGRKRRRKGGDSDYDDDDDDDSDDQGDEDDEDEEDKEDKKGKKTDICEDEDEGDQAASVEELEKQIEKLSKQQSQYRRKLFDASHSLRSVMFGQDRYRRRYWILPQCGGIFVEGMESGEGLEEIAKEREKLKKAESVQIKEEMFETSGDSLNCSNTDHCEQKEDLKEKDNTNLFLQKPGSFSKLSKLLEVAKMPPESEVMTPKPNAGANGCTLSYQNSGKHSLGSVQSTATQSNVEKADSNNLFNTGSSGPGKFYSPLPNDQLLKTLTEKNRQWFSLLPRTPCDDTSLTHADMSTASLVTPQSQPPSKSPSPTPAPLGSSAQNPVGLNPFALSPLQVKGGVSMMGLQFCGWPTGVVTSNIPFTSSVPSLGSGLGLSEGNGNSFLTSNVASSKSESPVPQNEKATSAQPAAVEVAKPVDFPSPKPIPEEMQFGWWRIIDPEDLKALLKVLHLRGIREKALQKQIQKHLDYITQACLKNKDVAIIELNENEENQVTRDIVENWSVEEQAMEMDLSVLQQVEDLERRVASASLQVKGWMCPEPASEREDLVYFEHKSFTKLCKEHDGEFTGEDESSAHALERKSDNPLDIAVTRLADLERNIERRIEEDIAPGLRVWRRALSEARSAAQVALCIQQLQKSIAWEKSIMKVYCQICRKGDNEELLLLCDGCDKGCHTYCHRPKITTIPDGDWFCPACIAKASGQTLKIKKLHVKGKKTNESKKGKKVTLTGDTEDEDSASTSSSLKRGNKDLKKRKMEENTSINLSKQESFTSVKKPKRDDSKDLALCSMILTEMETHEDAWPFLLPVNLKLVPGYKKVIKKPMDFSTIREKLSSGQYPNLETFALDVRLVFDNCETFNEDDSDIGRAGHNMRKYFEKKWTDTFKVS
How it was run: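 BAZ2B (50 nM) with biotin-H3(5-23)K14Ac peptide (50 nM) in PBS pH 7.4, 0.01% Tween-20, preformed 30 min, then compound 30 min at room temperature; top concentration 110uM. AlphaScreen streptavidin donor/nickel chelate acceptor beads (10 ug/mL final), 20 min dark, signal read.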
Also: nearly all actives have a fitted effect of over 60% in size.
Potency is read from the fitted curve at half-maximal effect; tags tell the direction and shape of the fitted curve.

Structure (SMILES) | Potency
CSc1ccc(CNC(C)C(O)c2ccccc2)cc1 (centres undefined) | inconclusive: 89.1 µM [inhibitor, single point]
Clc1ccccc1C1NCc2ccccc2-n2cccc21 (centres undefined) | inconclusive: 89.1 µM [inhibitor, single point]
Cc1cccc2c1=NC(=O)/C(=C/c1c(O)[nH]c(=O)[nH]c1=O)C=2 | inconclusive: 100 µM [inhibitor, single point]
Cc1ccc(/C=C(/C#N)C(=O)NC(=O)Oc2ccccc2)cc1 | inconclusive: 79.4 µM [inhibitor, single point]
O=C(C1CCN(CC2CCCCC2)CC1)N1CCCC1 | active: 70.8 µM
CN1CCN(C(=S)SCC(=O)Nc2ccc(Cl)cc2C(=O)c2ccccc2)CC1 | inconclusive: 50.1 µM [inhibitor, partial curve]
CC(Cl)(Cl)/C(=N/P(=S)(N1CCOCC1)N1CCOCC1)N1CCOCC1 | inactive
Cc1ccc2c(CN3CC=C(c4ccccc4)CC3)cc(=O)oc2c1C | inactive
CCC(C)n1c(O)c(/C=N/Nc2nc3c(c(=O)n(C)c(=O)n3C)n2C)c(=O)[nH]c1=S (centres undefined) | inconclusive: 50.1 µM [inhibitor, partial curve]
O=[N+]([O-])c1cc(-c2ccc([As](=O)(O)O)cc2)ccc1[As](=O)(O)O | inconclusive: 89.1 µM [inhibitor, single point]
O=C(COc1ccc2ccccc2c1)N1CCN(Cc2c[nH]c3ccccc23)CC1 | active: 50.1 µM
C/C1=C\[C@@H](C)C/C=C/[C@H]2[C@@H]3O[C@]3(C)[C@@H](C)[C@H]3[C@H](Cc4c[nH]c5ccccc45)NC(=O)[C@]32C(=O)/C=C/C(=O)[C@@H]1O | inconclusive: 56.2 µM [inhibitor, partial curve]
S=C1Nc2ccccc2Sc2ccccc21 | inconclusive: 28.2 µM [inhibitor, full curve]
COc1ccc(NC(=O)CCc2nc(C3=CCN(Cc4cccc(Cl)c4)CC3)no2)cc1OC | active: 50.1 µM
CN1C(=O)C(=Cc2ccc(N3CCCCCC3)o2)C(=O)N(C)C1=S | inconclusive: 3.16 µM [inhibitor, full curve, poor fit]
N#Cc1cccc(NC(=O)c2sc3nc4c(cc3c2N)N2CCC4CC2)c1 | inactive
CCOC(=O)CSCCOc1ccc(C=C2C(=O)NC(=O)NC2=O)cc1OC | inconclusive: 79.4 µM [inhibitor, single point]
CCOc1cc2c(cc1OCC)-n1cccc1C(c1ccc(OC)c(OC)c1)NC2 (centres undefined) | inconclusive: 50.1 µM [inhibitor, partial curve]
CCC(C)C(=O)N[C@@H](c1ccccc1)[C@@H](O)C(=O)O[C@H]1C[C@@]2(O)[C@@H](OC(=O)c3ccccc3)C3[C@](C)(C(=O)[C@H](OC(C)=O)C(=C1C)C2(C)C)[C@@H](O)C[C@H]1OC[C@@]31OC(C)=O (some centres undefined) | inconclusive: 89.1 µM [inhibitor, single point]
Cn1cccc1/C=C1/C(=O)NC(=O)N(Cc2ccccc2)C1=O | active: 44.7 µM
Clc1ccc2c(c1)C(OC1CN3CCC1CC3)c1ccccc1CS2 (centres undefined) | inconclusive: 79.4 µM [inhibitor, single point]
C=Cn1ccnc1P(=S)(c1ccc(N(C)C)cc1)c1nccn1C=C | inconclusive: 70.8 µM [inhibitor, single point]

Structure (SMILES) | Potency
CCCn1cc(C(=O)O)cn1 | inactive
COc1ccc(CN2CCN(Cc3ccccc3)CC2)c(OC)c1 | inconclusive: 89.1 µM [inhibitor, single point]
CC(Cc1ccccc1)NC(N)=O (centres undefined) | inactive
O=C(c1ccc(Cl)cc1)C1CCCN(Cc2ccc3ncccc3c2)C1 (centres undefined) | inconclusive: 50.1 µM [inhibitor, partial curve]
O=c1[nH]c(O)c(N=Nc2cc([N+](=O)[O-])ccc2O)c(=O)[nH]1 | active: 50.1 µM
COc1ccc2nc(/N=C/c3c(O)n(-c4cccc(Cl)c4)c(=O)[nH]c3=O)sc2c1 | inactive
O=C1NC(=O)N(c2ccccc2)C(=O)/C1=C\c1ccccc1[N+](=O)[O-] | inactive
CCC(CC)N1CCN(C(=O)Cc2ccccc2)CC1 | inconclusive: 89.1 µM [inhibitor, single point]
COC(=O)c1c(NC(=O)C2CC=CCC2C(=O)O)sc2c1CCCCC2 (centres undefined) | inconclusive: 79.4 µM [inhibitor, single point]
Cc1nc2ccccc2n1C1CCN(Cc2nnnn2CCc2ccccc2)CC1 | inconclusive: 89.1 µM [inhibitor, single point]
C[C@]12CCC3C(CC[C@H]4C[C@H](N)CC[C@]34C)C1CC[C@H]2O (some centres undefined) | inactive
COc1ccc(CN2CCCC(C(=O)c3ccccc3SC)C2)cc1O (centres undefined) | inconclusive: 79.4 µM [inhibitor, partial curve]
COc1ccc(N2C(=O)/C(=C/c3ccc(C)o3)C(=O)NC2=S)c(OC)c1 | active: 50.1 µM
Cc1cc(C)n(-c2ccc(NN=C(C#N)C#N)cc2)n1 | active: 31.6 µM
Cc1cccc(-n2c(O)c(/C=N/N3CCOCC3)c(=O)[nH]c2=S)c1 | inconclusive: 89.1 µM [inhibitor, single point]
COC(=O)C(O)(c1ccc(NC(=S)NC(=O)c2ccc(Cl)cc2Cl)c(C)c1)C(F)(F)F (centres undefined) | inactive
c1cncc(CNC2CCCC2)c1 | inconclusive: 89.1 µM [inhibitor, single point]
CC1N(C)c2cc(NC(=O)c3ccco3)c(P(=O)(Nc3ccc([N+](=O)[O-])cc3)N3CCOCC3)cc2C1(C)C (centres undefined) | inconclusive: 28.2 µM [inhibitor, partial curve]
CN(C)C1C(=O)C(C(N)=O)=C(O)C2(O)C(=O)C3=C(O)c4c(O)cccc4C(C)(O)C3CC12 (centres undefined) | active: 12.6 µM
CN1C2C=C(N(C(=O)c3ccc(Cl)cc3)c3ccccc3)CC1CC2 (centres undefined) | inactive
Nc1ccc(C2(c3ccc(N)cc3)c3ccccc3-c3ccccc32)cc1 | inconclusive: 6.31 µM [inhibitor, full curve, poor fit]
CCc1ccccc1N1C(=O)/C(=C/c2ccc(N3CCN(C)CC3)o2)C(=O)NC1=S | inconclusive: 39.8 µM [inhibitor, partial curve]
